From the supplement of paper PMC4604168 (melanoma cell lines)
Some of the results follow. Single values are uncertain, as repeats are few or missing.

System: LOXIMVI
Experiment: cell count relative to DMSO control; melanoma cells; higher = more viable cells
Conditions: library dose: standard library concentration; 72 h
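Also: cells treated in 1,536-well plates, then fixed and DAPI-stained, with nuclei counted from automated high-throughput microscope images.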

Row | Compound | cell count
1 | COc1cc([C@@H]2c3cc4c(cc3[C@@H](O[C@@H]3O[C@@H]5CO[C@@H](C)O[C@H]5[C@H](O)[C@H]3O)[C@H]3COC(=O)[C@H]23)OCO4)cc(OC)c1O [etoposide] + COc1cc(Nc2ncc(F)c(Nc3ccc4c(n3)NC(=O)C(C)(C)O4)n2)cc(OC)c1OC [Tamatinib] (first compound 0.1 µM, partner dose 2 µM) | 33.6%
2 | Cn1cnc2c(F)c(Nc3ccc(Br)cc3Cl)c(C(=O)NOCCO)cc21 [selumetinib] + CC(C)C[C@H](NC(=O)[C@H](Cc1ccccc1)NC(=O)c1cnccn1)B(O)O [Bortezomib] (first compound 0.075 µM, partner dose 0.005 µM) | 21.9%
3 | COc1cc([C@@H]2c3cc4c(cc3[C@@H](O[C@@H]3O[C@@H]5CO[C@@H](C)O[C@H]5[C@H](O)[C@H]3O)[C@H]3COC(=O)[C@H]23)OCO4)cc(OC)c1O [etoposide] + Oc1nc(-c2ccc(C(F)(F)F)cc2)nc2c1CSCC2 [XAV939] (first compound 0.1 µM, partner dose 10 µM) | 106%
4 | COc1cc([C@@H]2c3cc4c(cc3[C@@H](O[C@@H]3O[C@@H]5CO[C@@H](C)O[C@H]5[C@H](O)[C@H]3O)[C@H]3COC(=O)[C@H]23)OCO4)cc(OC)c1O [etoposide] + COc1ccc(C2=N[C@@H](c3ccc(Cl)cc3)[C@@H](c3ccc(Cl)cc3)N2C(=O)N2CCNC(=O)C2)c(OC(C)C)c1 [Nutlin-3] (first compound 0.1 µM, partner dose 0.5 µM) | 46.2%
5 | Cn1cnc2c(F)c(Nc3ccc(Br)cc3Cl)c(C(=O)NOCCO)cc21 [selumetinib] + COc1ccc(COc2ccc(Cc3cnc(N)nc3N)cc2OC)cc1 [GW2580] (first compound 0.075 µM, partner dose 5 µM) | 134%
6 | C[C@]1(O)C[C@@H](c2nc(-c3ccc4ccc(-c5ccccc5)nc4c3)c3c(N)nccn32)C1 + Cn1c(=O)n(-c2ccc(C(C)(C)C#N)cc2)c2c3cc(-c4cnc5ccccc5c4)ccc3ncc21 [NVP-BEZ235] (first compound 2 µM, partner dose 0.02 µM) | 48.1%
7 | Cn1cnc2c(F)c(Nc3ccc(Br)cc3Cl)c(C(=O)NOCCO)cc21 [selumetinib] + O=C(O)c1ccc(-c2c[nH]c3ncc(-c4ccccc4)cc23)cc1C1CCCC1 [GSK650394] (first compound 0.075 µM, partner dose 0.8 µM) | 60.6%
8 | COc1cc([C@@H]2c3cc4c(cc3[C@@H](O[C@@H]3O[C@@H]5CO[C@@H](C)O[C@H]5[C@H](O)[C@H]3O)[C@H]3COC(=O)[C@H]23)OCO4)cc(OC)c1O [etoposide] + COc1ccc2c(c1)CCC1C2CCC2(C)C(NCCCCCCN3C(=O)C=CC3=O)CCC12 [U73122] (first compound 0.1 µM, partner dose 2 µM) | 84.8%
9 | COc1cc([C@@H]2c3cc4c(cc3[C@@H](O[C@@H]3O[C@@H]5CO[C@@H](C)O[C@H]5[C@H](O)[C@H]3O)[C@H]3COC(=O)[C@H]23)OCO4)cc(OC)c1O [etoposide] + COc1ccc(-c2ccc3c(N4CCOCC4)nc(N4C[C@@H](C)O[C@@H](C)C4)nc3n2)cc1CO [KU0063794] (first compound 0.1 µM, partner dose 0.1 µM) | 60.4%
10 | COc1cc([C@@H]2c3cc4c(cc3[C@@H](O[C@@H]3O[C@@H]5CO[C@@H](C)O[C@H]5[C@H](O)[C@H]3O)[C@H]3COC(=O)[C@H]23)OCO4)cc(OC)c1O [etoposide] + Cc1cc(N2CCOCC2)cc2[nH]c(-c3c(NC[C@@H](O)c4cccc(Cl)c4)cc[nH]c3=O)nc12 [BMS536924] (first compound 0.1 µM, partner dose 1 µM) | 74.9%
11 | Cn1cnc2c(F)c(Nc3ccc(Br)cc3Cl)c(C(=O)NOCCO)cc21 [selumetinib] + CN1CCN(c2ccc3nc(-c4c(N)c5c(F)cccc5[nH]c4=O)[nH]c3c2)CC1 [Dovitinib] (first compound 0.075 µM, partner dose 0.5 µM) | 82.3%
12 | C[C@]1(O)C[C@@H](c2nc(-c3ccc4ccc(-c5ccccc5)nc4c3)c3c(N)nccn32)C1 + O=S(=O)(c1ccccc1)N(CC(F)(F)F)c1ccc(C(O)(C(F)(F)F)C(F)(F)F)cc1 [T0901317] (first compound 2 µM, partner dose 7 µM) | 98.5%
